Source: the supplement of paper PMC11417369
Some of the results follow.

Each sequence was assayed on PfAP2-HC AP2 domain (GST-tagged) (assay: gcPBM binding intensity (ln(normalized median fluorescence intensity)); higher = stronger DNA binding).
In short: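 GST-fused DNA-binding domains of P. falciparum, expressed in E. coli, were applied at about 25 μg on average for 1 h to an Agilent 4 × 180k array of primer-extended double-stranded 36-bp intergenic genomic probes and negative controls. Binding intensity is the highest Masliner-normalised natural-log median intensity across replicate spots of either probe orientation, measured with Alexa488 anti-GST antibody and a 488 nm scan.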

| Sequence | gcPBM binding intensity (ln) |
| --- | --- |
| CATTATTTATTTTAATGTACTTATTTTTAAATTGGT [XGTACX_site8038] | 9.54 |
| AAAAAAAAAAAAAAAACACACATATATCTATAATAT [CACACA_site6665] | 9.84 |
| AGTGCATACATGAATTGTACTTTAAAATAAATTCTA [XGTACX_site8156] | 9.56 |
| AATTAAAATACAAATGTATGCATGTCTCATATAGAA [TGCATGCA_site822] | 9.71 |
| TTACGAATTACATATTGTACATATGCACAATTTTAA [XGTACX_site6802] | 9.63 |
| TACATAATTTAAAATTTTATAAGTTGTAATTCGTTT [XGTACX_negctrl_site308] | 9.47 |
| TAAGACATGATATATACACACCTTGTTTTAATTTTC [CACACA_site5282] | 9.81 |
| AGAAATTATAAATACCTACACACTTATCAAAATAAA [CACACA_site2264] | 10 |
| TATATCTGTAAATGCACACATATGTGGATATACTTA [CACACA_site5013] | 9.78 |
| GTTCATTCATTTTAATGTACAAATTTAACTTTTTCT [XGTACX_site680] | 9.64 |
| TATAAATATAAATACACACACATATAGATTATAGAT [CACACA_site6429] | 10.5 |
| TGCTACATTCTATGTACACACATATACATATATATA [CACACA_site893] | 9.86 |
| TCTAATAATATATACACACACATATATATTTATATA [CACACA_site2032] | 10.2 |
| GATAAAGTAAAAATATGTACATATATATTTTAAGTT [XGTACX_site6439] | 9.89 |
| AATACTTTTTTCTGTACACACTTGATTTACTATAAT [CACACA_site5544] | 10.1 |
| TTCATATTCGATAAAGTGCATTAATTTTATTTATCA | 9.36 |
| TCCAATTGTTCTAGTGTGCACATAAATAAATCTCAT | 9.87 |
| TATTAATGCAAATGTTATATGTGCATACATAAATGT [CACACA_negctrl_site790] | 9.54 |
| TATTACATACATATCTGTACATATATTAATGCACAA [XGTACX_site3315] | 9.6 |
| AAAAATATTAAAAAAGGTACACAGCATATCTCTTTT [XGTACX_site65] | 9.77 |
| AAGAGTTAAAAAAATACACACATATAGATTTTTTTA [CACACA_site7018] | 9.8 |
| ATAAATAAAAAAGAAAGAAAGAAAGAAACAAACAAA [CACACA_negctrl_site1198] | 9.74 |

| Sequence | gcPBM binding intensity (ln) |
| --- | --- |
| TTTTTTTCTTTTTACATACACACAAAAAAATAAAAT [CACACA_site580] | 9.52 |
| AGCACATTATTCAAAAGTACAAATAGGTATTGTATA [XGTACX_site6107] | 9.59 |
| AATATAAAAAAAAAAAAAAAAAAAAAAAAAAAGACA [CACACA_negctrl_site983] | 9.77 |
| TTGTTAATATGATAAAAGAGGAATATTCTCTTCCTA [GTGCAC_negctrl_site659] | 9.11 |
| TAAAAAAAAACTCATGCACACAATATTATGAAAAAG [CACACA_site665] | 9.87 |
| AAATATTATGTACGCACACACATTTTTAATATATAA [CACACA_site3851] | 10 |
| TTATTTACAACTTCAAATTATGTGTAATACTACTAT [CACACA_negctrl_site741] | 9.72 |
| AAATTAATGTATATGTGAAGCAAGGGATGCGGCAGA [CACACA_negctrl_site406] | 10 |
| ATATATATATATATATAATATATAATATATATATAT [CACACA_negctrl_site96] | 9.64 |
| CAATTATTGTAATGCATGCACTGAATATAAAAAGAA | 9.75 |
| TTTATATGTATTAAGTGTACACATATAATGTATTTT [XGTACX_site16] | 9.73 |
| TTTCATATCTTGTCAAGTACATATTTTTATTTTCTT [XGTACX_site2160] | 9.82 |
| AAAAAATATAATAATTGTACACATGCACACACAAAT [XGTACX_site1563] | 10.2 |
| ACTTAATATCGGTACACACACAAGATAAGAATTATG [CACACA_site894] | 10 |
| AGAGGAGTAAAACAAAACAAAGAGAAATAAACACAC [XGTACX_negctrl_site386] | 10 |
| AATTAATAAATATTATATGTTAATATTTTTTTTGTT [CACACA_negctrl_site1692] | 9.51 |
| ATACTAAAAATGAATGTACACATATATATATATATA [TGCATGCA_negctrl_site209] | 9.82 |
| ATATATCTTTATATAGTGCATTAAATATGTTGTAAT [GTGCAC_site9953] | 9.5 |
| TATAATAAAATATTTTGTACGTATATTTTAATATTT [XGTACX_site2582] | 9.59 |
| AAAAAAAATAAAAATAGTACCCAAAAAATTATGAAT [XGTACX_site6641] | 9.73 |
| TTTTTATAAAAATGAACACACACATATATATATATA [CACACA_site9160] | 9.79 |
| AATAACACTATTTAACGTACAAAAAAAAAAAAGAAA [XGTACX_site3721] | 9.72 |

| Sequence | gcPBM binding intensity (ln) |
| --- | --- |
| ACAAAAAAAAAAAAAAAAAGAAGAATATATCTATAT [CACACA_negctrl_site759] | 9.34 |
| TATCATACAATATTCACACAAATAAATTGACATATT [CACACA_site5891] | 9.61 |
| CACAGACACGGACACACACACACAAAAAAAAAAAGA [CACACA_site4436] | 11.3 |
| TATTAAAAAAATATTTGTACTTAAAATTTATTATAT [XGTACX_site1467] | 9.48 |
| TATTTTCTTTAATTAATTATTGGTCTGAATGGGGTT [CACACA_negctrl_site418] | 9.56 |
| AAAAAGGAAATAATAACACACATTAGTAATTATAAA [CACACA_site7573] | 9.85 |
| AATATCTTAGTGGATACACACATATAAATGGGTATT [CACACA_site4426] | 9.72 |
| TCATATGTTAAACACACACACACACCGAAAAAAACA [CACACA_site9067] | 10.6 |
| AAAAAATTAAAAAAAAAAAAATCATGAAAAAAACAA [CACACA_negctrl_site1673] | 9.7 |
| TTTATTGATAATATATATATATATATATATATATAT [GTGCAC_negctrl_site552] | 9.48 |
| AGTCTATAGTAATTTACACACAAAAAAATATCAGGA [CACACA_site7620] | 9.89 |
| AGTAGTCTGGAGAAAAGTACATAGTATCTGGTAGCT [XGTACX_site2027] | 9.63 |
| CCTAAATAAATGGACACACACATATATATATATATA [CACACA_site1439] | 9.88 |
| CTTATATTAAGTATTACACACATATATATAAATGCA [CACACA_site4581] | 9.65 |
| TATATATATATAAGAAGTACAGAAAATTAGAAAAAA [XGTACX_site8773] | 9.77 |
| TAGAAATAAGAAAAATGTACATATAATATTGAAAGT [XGTACX_site3043] | 10.1 |
| TTTTACGTAATATTTATACACACGAACCTTATTAAT [CACACA_site2300] | 9.82 |
| GATGTGTATATTAAATGTACGAACAGTTGAGGCGAA [XGTACX_site7853] | 9.86 |
| AGGATATAAAGTTGTGCATGTCAAGTGCACCGTATT [TGCATGCA_site451] | 9.67 |
| AGAAAAATCTAAATTCGTACATAACGTTTAAACATA [XGTACX_site2511] | 9.43 |
| CAGCATGGTATACCTATAAAATATATATACTAACAT [TGCATGCA_negctrl_site51] | 9.56 |
| TTTTTAAAAAATAAGAAAAAATAAATATATTACAAA [XGTACX_negctrl_site191] | 9.41 |

| Sequence | gcPBM binding intensity (ln) |
| --- | --- |
| ATGTTACACAGACACACACACATAAAAAAACAAAAA [CACACA_site7516] | 10.4 |
| GGCATATATACATATGGTACACATTTATTAATACCG [XGTACX_site2710] | 9.76 |
| CACATACATATATATACACACAAATATATATACGCA [CACACA_site791] | 10.1 |
| AGAACATGCAAACATGCACACAGAAAAAAAAAATAT [CACACA_site8442] | 10.1 |
| GTTTTATTCCATTATTGTACTTAATATAAAGAAACT [XGTACX_site3054] | 9.5 |
| ATAATAATATGTGGGTGTACATATACACATATATAT [XGTACX_site4356] | 9.9 |
| ATAAATTGAAGTAAATTTGACCTTTTTTTTTTTTTT [GTGCAC_negctrl_site354] | 9.44 |
| TTCATTTATATAATCACACATTTTATCATCTATGTT [CACACA_site4327] | 9.97 |
| TTAGAAAGAATGTATTGTACATATATATTATATATA [XGTACX_site7045] | 9.45 |
| ATATGTTTATTTATTTGTACTTATCATATAATAACA [XGTACX_site5486] | 9.49 |
| TGTATATTTTAGTGATGTACTAATATTATTACTAAT [XGTACX_site3952] | 9.61 |
| TGCTTAGCACACTATCTACTTCCTTTGTTTCATAAA [GTGCAC_negctrl_site495] | 9.73 |
| TTTTTCACATCTATAAATCATCTAATCAATATTTTT [GTGCAC_negctrl_site444] | 9.55 |
| ATTCTAATTAGTAAAGTGCAGATAAAATGATGCCCT [GTGCAC_site9578] | 9.42 |
| AATATATTTTGATATGAACAATTAATAATTTCAAAT [GTGCAC_negctrl_site170] | 9.51 |
| ATCGTTATATAATGTTGTACTTGTTATATATATATA [XGTACX_site7582] | 9.9 |
| GCATGCACGGAAAAAAGTACATATATAAATTTGGTT [XGTACX_site3393] | 9.54 |
| GGTTCTAAAAAGGGAAGTACATGGAAAAATATAAAT [XGTACX_site4639] | 9.46 |
| TTTTTTAAATATATTTGTACATATGAAATAAAGATA [XGTACX_site3841] | 9.28 |
| AAAATTTAGCAAAGGTGTACAAAAGATAATTAGAGT [XGTACX_site3467] | 10 |
| AAAATTATTATGAAAAGTACAAATATGTAAACATAC [XGTACX_site5517] | 9.69 |
| ATTAAAATCATATACACACCCATATATATATATATA [CACACA_site5050] | 10.1 |
